Experimental data as given in the supplement of paper PMC12217912.
This is one part of the list. The full chains were built here from the parent and the listed change. Inactive controls read about 0.05.

B1: TEV protease; numbered along this chain (parent)
chain: MGESLFKGPRDYNPISSSICHLTNESDGHTTSLYGIGFGPFIITNKHLFRRNNGTLVVQSLHGVFKVKDTTTLQQHLVDGRDMIIIRMPKDFPPFPQKLKFREPQREERICLVTTNFQTKSMSSMVSDTSCTFPSGDGIFWKHWIQTKDGQCGSPLVSTRDGFIVGIHSASNFTNTNNYFTSVPKNFMELLTNQEAQQWVSGWRLNADSVLWGGHKVFMVKPEEPFQPVKEATQL

Variants of: B1
Assay: raw area under fraction-flipped curve 0-4 h after induction (AUC4h, not background-subtracted), DNA-recorder readout of cleavage of the substrate (dimensionless); higher = more cleavage of the substrate by the protease variant
Settings: temperature: 34 °C; time window: 0-4 h after rhamnose induction
Description: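 In vivo DNA recorder in E. coli TOP10(DE3) ΔrhaA at 34 °C. Each TEVp single-site mutant (parent TEVp 0) is paired with a single-site variant of the 7-mer TEVs (canonical ENLYFQ|S). The substrate sits between flexible linkers in a Bxb1-sfGFP-TEVs-SsrA fusion, so cleavage stabilises Bxb1 and speeds flipping of a recombination array, read by NGS. The value is the raw area under the fraction-flipped curve over 0-4 h after rhamnose induction (AUC4h), with ≥20 reads per time point. It is not background-subtracted; inactive controls average about 0.047.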
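Also: Bxb1 expression induced with 0.2% (w/v) L-rhamnose at OD600 near 0.5, cultures sampled hourly, flipped fraction per protease–substrate barcode pair counted by paired-end Illumina sequencing.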

G2D
area with substrate ENLYFAS: 0.11
area with substrate ENLYFCS: 0.0542
area with substrate ENLYFES: 0.0705
area with substrate ENLYFFS: 0.0633
area with substrate ENLYFGS: 0.0606
area with substrate ENLYFIS: 0.06
area with substrate ENLYFLS: 0.0559
area with substrate ENLYFMS: 0.0503
area with substrate ENLYFNS: 0.0639
area with substrate ENLYFPS: 0.0611
area with substrate ENLYFRS: 0.0595
area with substrate ENLYFSS: 0.0559
area with substrate ENLYFTS: 0.0556
area with substrate ENLYFWS: 0.0616
area with substrate ENLYFYS: 0.0545

F6M
area with substrate ENLYFAS: 0.068
area with substrate ENLYFCS: 0.0711
area with substrate ENLYFDS: 0.0597
area with substrate ENLYFFS: 0.0621
area with substrate ENLYFHS: 0.0602
area with substrate ENLYFIS: 0.0482
area with substrate ENLYFKS: 0.0608
area with substrate ENLYFMS: 0.0702
area with substrate ENLYFSS: 0.0601
area with substrate ENLYFVS: 0.0695
area with substrate ENLYFWS: 0.074

F6V
area with substrate ENLYFAS: 0.0661
area with substrate ENLYFDS: 0.0573
area with substrate ENLYFFS: 0.0545
area with substrate ENLYFGS: 0.0491
area with substrate ENLYFHS: 0.0958
area with substrate ENLYFIS: 0.0642
area with substrate ENLYFLS: 0.0743
area with substrate ENLYFMS: 0.0828
area with substrate ENLYFPS: 0.0716
area with substrate ENLYFTS: 0.0721
area with substrate ENLYFVS: 0.0679

P9K
area with substrate ENLYFAS: 0.087
area with substrate ENLYFCS: 0.0537
area with substrate ENLYFDS: 0.055
area with substrate ENLYFES: 0.0524
area with substrate ENLYFFS: 0.0709
area with substrate ENLYFGS: 0.0567
area with substrate ENLYFHS: 0.0517
area with substrate ENLYFIS: 0.061
area with substrate ENLYFKS: 0.0628
area with substrate ENLYFLS: 0.0501
area with substrate ENLYFNS: 0.0634
area with substrate ENLYFPS: 0.0587
area with substrate ENLYFRS: 0.0713
area with substrate ENLYFSS: 0.067
area with substrate ENLYFTS: 0.0518
area with substrate ENLYFYS: 0.0773

P9Y
area with substrate ENLYFAS: 0.049
area with substrate ENLYFHS: 0.0746
area with substrate ENLYFIS: 0.0628
area with substrate ENLYFKS: 0.0526
area with substrate ENLYFLS: 0.0489
area with substrate ENLYFPS: 0.0558
area with substrate ENLYFTS: 0.0796
area with substrate ENLYFWS: 0.05

R10H
area with substrate ENLYFAS: 0.0511
area with substrate ENLYFCS: 0.0643
area with substrate ENLYFES: 0.057
area with substrate ENLYFFS: 0.109
area with substrate ENLYFGS: 0.0501
area with substrate ENLYFHS: 0.0548
area with substrate ENLYFIS: 0.0608
area with substrate ENLYFLS: 0.0566
area with substrate ENLYFMS: 0.0625
area with substrate ENLYFNS: 0.0634
area with substrate ENLYFPS: 0.0614
area with substrate ENLYFSS: 0.0762
area with substrate ENLYFTS: 0.0722
area with substrate ENLYFWS: 0.061
area with substrate ENLYFYS: 0.0451

R10Q
area with substrate ENLYFAS: 0.0474
area with substrate ENLYFCS: 0.0659
area with substrate ENLYFDS: 0.0642
area with substrate ENLYFES: 0.0678
area with substrate ENLYFFS: 0.0658
area with substrate ENLYFGS: 0.0651
area with substrate ENLYFIS: 0.0595
area with substrate ENLYFKS: 0.0533
area with substrate ENLYFLS: 0.0574
area with substrate ENLYFMS: 0.0812
area with substrate ENLYFNS: 0.058
area with substrate ENLYFPS: 0.0636
area with substrate ENLYFRS: 0.0512
area with substrate ENLYFSS: 0.0419
area with substrate ENLYFTS: 0.0569
area with substrate ENLYFWS: 0.0762
area with substrate ENLYFYS: 0.0613

D11G
area with substrate ENLYFAS: 0.0589
area with substrate ENLYFCS: 0.0661
area with substrate ENLYFDS: 0.0557
area with substrate ENLYFES: 0.0628
area with substrate ENLYFFS: 0.0501
area with substrate ENLYFHS: 0.0575
area with substrate ENLYFIS: 0.0551
area with substrate ENLYFKS: 0.0642
area with substrate ENLYFMS: 0.0674
area with substrate ENLYFNS: 0.062
area with substrate ENLYFPS: 0.0568
area with substrate ENLYFRS: 0.0628
area with substrate ENLYFSS: 0.0459
area with substrate ENLYFTS: 0.0646
area with substrate ENLYFVS: 0.0637
area with substrate ENLYFWS: 0.0713

D11H
area with substrate ENLYFAS: 0.0492
area with substrate ENLYFCS: 0.0543
area with substrate ENLYFDS: 0.0576
area with substrate ENLYFES: 0.0486
area with substrate ENLYFFS: 0.0687
area with substrate ENLYFGS: 0.0726
area with substrate ENLYFHS: 0.0643
area with substrate ENLYFIS: 0.0647
area with substrate ENLYFKS: 0.0579
area with substrate ENLYFLS: 0.0793
area with substrate ENLYFMS: 0.0645
area with substrate ENLYFNS: 0.0669
area with substrate ENLYFPS: 0.0524
area with substrate ENLYFRS: 0.0638
area with substrate ENLYFSS: 0.0571
area with substrate ENLYFTS: 0.0616
area with substrate ENLYFVS: 0.0204
area with substrate ENLYFWS: 0.0648
area with substrate ENLYFYS: 0.0801

D11N
area with substrate ENLYFAS: 0.0722
area with substrate ENLYFCS: 0.0601
area with substrate ENLYFDS: 0.0708
area with substrate ENLYFES: 0.043
area with substrate ENLYFFS: 0.0681
area with substrate ENLYFIS: 0.0668
area with substrate ENLYFKS: 0.0653
area with substrate ENLYFMS: 0.0544
area with substrate ENLYFNS: 0.0825
area with substrate ENLYFPS: 0.0594
area with substrate ENLYFRS: 0.0665
area with substrate ENLYFTS: 0.0475
area with substrate ENLYFVS: 0.066
area with substrate ENLYFWS: 0.055
area with substrate ENLYFYS: 0.0533

D11Y
area with substrate ENLYFAS: 0.085
area with substrate ENLYFCS: 0.0589
area with substrate ENLYFDS: 0.055
area with substrate ENLYFES: 0.061
area with substrate ENLYFFS: 0.0647
area with substrate ENLYFGS: 0.0571
area with substrate ENLYFHS: 0.0623
area with substrate ENLYFIS: 0.06
area with substrate ENLYFKS: 0.0657
area with substrate ENLYFMS: 0.0638
area with substrate ENLYFNS: 0.0594
area with substrate ENLYFPS: 0.0633
area with substrate ENLYFRS: 0.0659
area with substrate ENLYFTS: 0.0538
area with substrate ENLYFVS: 0.0485
area with substrate ENLYFWS: 0.0766
area with substrate ENLYFYS: 0.0567

Y12G
area with substrate ENLYFAS: 0.0617
area with substrate ENLYFCS: 0.049
area with substrate ENLYFDS: 0.0481
area with substrate ENLYFES: 0.0642
area with substrate ENLYFFS: 0.0779
area with substrate ENLYFGS: 0.0469
area with substrate ENLYFIS: 0.0577
area with substrate ENLYFKS: 0.0595
area with substrate ENLYFLS: 0.0537
area with substrate ENLYFMS: 0.0637
area with substrate ENLYFNS: 0.0699
area with substrate ENLYFPS: 0.0657
area with substrate ENLYFRS: 0.0574
area with substrate ENLYFTS: 0.0521
area with substrate ENLYFWS: 0.0649
